Positions count from the first letter of the chain named. The list shows a part of the results.

This note sets out measurements from PMC9911399, “Two distinct binding modes provide the RNA-binding protein RbFox with extraordinary sequence specificity”.

The labels stand for the following.
B1: AGUUGAG (DNA:RNA)
RNA: GGGAGACCGGAAUUCAGAUUGUCCAGUUGAGUUAAAUCCCGUCGUAGCCACCA
DNA 1: CAATCTGAATTCCGGTCTCCC
DNA 2: TGGTGGCTACGACGGGATT
B2: UGGCUGA (DNA:RNA)
RNA: B1 RNA with A25U, U27G, U28C, G29U, A30G, G31A
DNA 1: CAATCTGAATTCCGGTCTCCC
DNA 2: TGGTGGCTACGACGGGATT
B3: ACUUCUA (DNA:RNA)
RNA: B1 RNA with G26C, G29C, A30U, G31A
DNA 1: CAATCTGAATTCCGGTCTCCC
DNA 2: TGGTGGCTACGACGGGATT
B4: AUAUAUA (DNA:RNA)
RNA: B1 RNA with G26U, U27A, G29A, A30U, G31A
DNA 1: CAATCTGAATTCCGGTCTCCC
DNA 2: TGGTGGCTACGACGGGATT
B5: UGACCGU (DNA:RNA)
RNA: B1 RNA with A25U, U27A, U28C, G29C, A30G, G31U
DNA 1: CAATCTGAATTCCGGTCTCCC
DNA 2: TGGTGGCTACGACGGGATT
B6: GACAAGU (DNA:RNA)
RNA: GGGAGACCGGAAUUCAGAUUGUCCGACAAGUUUAAAUCCCGUCGUAGCCACCA
DNA 1: CAATCTGAATTCCGGTCTCCC
DNA 2: TGGTGGCTACGACGGGATT
B7: GAUCACU (DNA:RNA)
RNA: B6 RNA with C27U, A28C, G30C
DNA 1: CAATCTGAATTCCGGTCTCCC
DNA 2: TGGTGGCTACGACGGGATT
B8: GGGUUAA (DNA:RNA)
RNA: B1 RNA with A25G, U27G, G29U, G31A
DNA 1: CAATCTGAATTCCGGTCTCCC
DNA 2: TGGTGGCTACGACGGGATT
B9: GGUCGCA (DNA:RNA)
RNA: B1 RNA with A25G, U28C, A30C, G31A
DNA 1: CAATCTGAATTCCGGTCTCCC
DNA 2: TGGTGGCTACGACGGGATT
B10: UCAGUAU (DNA:RNA)
RNA: B1 RNA with A25U, G26C, U27A, U28G, G29U, G31U
DNA 1: CAATCTGAATTCCGGTCTCCC
DNA 2: TGGTGGCTACGACGGGATT
B11: UAACAUG (DNA:RNA)
RNA: B6 RNA with G25U, C27A, A28C, G30U, U31G
DNA 1: CAATCTGAATTCCGGTCTCCC
DNA 2: TGGTGGCTACGACGGGATT
B12: UUGGGGA (DNA:RNA)
RNA: B1 RNA with A25U, G26U, U27G, U28G, A30G, G31A
DNA 1: CAATCTGAATTCCGGTCTCCC
DNA 2: TGGTGGCTACGACGGGATT
B13: UCCAACA (DNA:RNA)
RNA: B6 RNA with G25U, A26C, G30C, U31A
DNA 1: CAATCTGAATTCCGGTCTCCC
DNA 2: TGGTGGCTACGACGGGATT
B14: AGCAGUU (DNA:RNA)
RNA: B1 RNA with U27C, U28A, A30U, G31U
DNA 1: CAATCTGAATTCCGGTCTCCC
DNA 2: TGGTGGCTACGACGGGATT
B15: UUAUCAG (DNA:RNA)
RNA: B1 RNA with A25U, G26U, U27A, G29C
DNA 1: CAATCTGAATTCCGGTCTCCC
DNA 2: TGGTGGCTACGACGGGATT
B16: GUACAAU (DNA:RNA)
RNA: B6 RNA with A26U, C27A, A28C, G30A
DNA 1: CAATCTGAATTCCGGTCTCCC
DNA 2: TGGTGGCTACGACGGGATT
B17: CUGACCG (DNA:RNA)
RNA: B1 RNA with A25C, G26U, U27G, U28A, G29C, A30C
DNA 1: CAATCTGAATTCCGGTCTCCC
DNA 2: TGGTGGCTACGACGGGATT
B18: GCCGUGC (DNA:RNA)
RNA: B6 RNA with A26C, A28G, A29U, U31C
DNA 1: CAATCTGAATTCCGGTCTCCC
DNA 2: TGGTGGCTACGACGGGATT
B19: CUUGAUU (DNA:RNA)
RNA: B6 RNA with G25C, A26U, C27U, A28G, G30U
DNA 1: CAATCTGAATTCCGGTCTCCC
DNA 2: TGGTGGCTACGACGGGATT
B20: GUCUAGU (DNA:RNA)
RNA: B6 RNA with A26U, A28U
DNA 1: CAATCTGAATTCCGGTCTCCC
DNA 2: TGGTGGCTACGACGGGATT

For the test, the target named is T1, RBFOX1 RRM RbFoxmut (Fox-RRM*) (Homo sapiens, UniProt Q9NWB1 109-208, R118D;E147R;N151S;E152T).
T1 sequence: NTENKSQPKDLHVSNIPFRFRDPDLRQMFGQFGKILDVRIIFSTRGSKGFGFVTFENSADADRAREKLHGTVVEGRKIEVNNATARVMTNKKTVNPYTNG
Nature of the test: EMSA; HiTS-Eq, 1 nM pool, 10 min; buffer printed only for the single-RNA assays: 10 mM Tris pH 7.5, 150 mM NaCl, 3.4 mM EDTA, 0.001% NP-40, 30 C. As to conditions: tags: His6 N-terminal (pET28a); label: 5' 32P. An outline of the steps: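 Purified RbFox RRM (wild type or mutant) was equilibrated for 10 min in 50 µL with 1 nM of a 5′-radiolabelled pool of RNA with 7 randomized nucleotides, its flanks annealed to DNA oligonucleotides, across increasing protein concentrations. Free RNA was separated by 8% native PAGE, excised, reverse-transcribed, PCR-barcoded and sequenced on an Illumina HiSeq 2500. Relative association constants came from read-count changes of each variant against the control reaction, normalised to the cognate motif.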
A general note: A gel shift assay detects complexes by their altered migration in electrophoresis.
For the molecule B1, the binding signal was 0.133 KA relative to UGCAUGU.
On to B2, for which the binding signal was 0.274 KA relative to UGCAUGU.
As to B3, the binding signal is 0.108 KA relative to UGCAUGU.
With B4 the figure was 0.19 KA relative to UGCAUGU.
In the case of B5, the binding signal was 0.105 KA relative to UGCAUGU.
Turning to B6, the binding signal was 0.052 KA relative to UGCAUGU.
Regarding B7, the binding signal was 0.0566 KA relative to UGCAUGU.
As to B8, the binding signal was 0.0954 KA relative to UGCAUGU.
With B9 the figure was 0.141 KA relative to UGCAUGU; with B10, 0.116 KA relative to UGCAUGU.
In the case of B11, the binding signal is 0.0703 KA relative to UGCAUGU.
For the molecule B12, the binding signal was 0.0745 KA relative to UGCAUGU.
The result for B13 reads 0.0867 KA relative to UGCAUGU; that for B14, 0.0774 KA relative to UGCAUGU.
With B15, the binding signal was 0.0956 KA relative to UGCAUGU.
In the case of B16, the binding signal was 0.0653 KA relative to UGCAUGU.
For B17, the binding signal is 0.125 KA relative to UGCAUGU.
Turning to B18, the binding signal is 0.114 KA relative to UGCAUGU.
For B19, the binding signal is 0.0829 KA relative to UGCAUGU.
The result for B20 reads 0.138 KA relative to UGCAUGU.
